This is one part of the list.

In the experiment the target is T1, OsWOX13 (Oryza sativa, UniProt Q5QMM3 1-267).
T1 sequence: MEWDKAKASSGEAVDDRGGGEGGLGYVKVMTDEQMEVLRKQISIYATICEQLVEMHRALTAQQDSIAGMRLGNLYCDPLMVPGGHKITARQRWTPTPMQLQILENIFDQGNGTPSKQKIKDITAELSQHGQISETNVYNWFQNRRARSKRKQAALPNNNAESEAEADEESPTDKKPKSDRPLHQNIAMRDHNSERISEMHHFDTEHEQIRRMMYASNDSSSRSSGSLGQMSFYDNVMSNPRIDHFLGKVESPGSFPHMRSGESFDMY
The experiment in a line: protein-binding microarray (RPBM); PBS, 2% BSA, 51.3 ng/ul salmon testes DNA, 50 uM zinc acetate, 200 nM TF, 25 C, 1 h; high values mean tight binding. To be noted: protein: recombinant; tags: N-terminal polyhistidine and DsRed monomer fusion (pET32a); label: CyDye5-dUTP incorporated in the synthesized complementary strand; 3' TTTTT single-stranded linker to array surface; dsDNA, one strand shown. An outline of the steps:
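The binding signal is fluorescence intensity per feature, in arbitrary units, read on an Axon 4000B scanner. Polyhistidine- and DsRed-tagged transcription factors (N-terminal fusions) from E. coli BL21-CodonPlus were purified on Ni–NTA and applied at 200 nM for 1 h at 25 °C to a double-stranded, BSA-blocked custom Agilent array in buffer with 50 µM zinc acetate.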
As to “TTGAAAGCAGCAGTGATTGCTAGTATGATTTCCTGGACATCGGAGTCACCTAGTGCAG”, the binding signal was 28100 fluorescence intensity (a.u.). For “CGGTAGATTAGATAGATCATAGATCAAGGGAGCTAGCTAGCGGAGTCACCTAGTGCAG” the value was 7750 fluorescence intensity (a.u.); for “TCTTCTAAATTTATACTCTTGTTGAGTACTACATGTTTGTCGGAGTCACCTAGTGCAG”, 5210 fluorescence intensity (a.u.). With “AGGGACCAATAAATATAATTTATGAGTAATGACAAGGCTTCGGAGTCACCTAGTGCAG” the figure was 4920 fluorescence intensity (a.u.).

Turning to “TACATTTAATTTGTTATGTGTTAAAATAGGTATAAGTTAGCGGAGTCACCTAGTGCAG”, the binding signal was 8430 fluorescence intensity (a.u.). For “CATTTGCTGGATGTGCTCCTTACTTAATATTTATGCATGGCGGAGTCACCTAGTGCAG” the value was 52600 fluorescence intensity (a.u.). Take “ATTAATTTTCTTTGTTATCCATCAAACAAACCGTGATCGGCGGAGTCACCTAGTGCAG”: the binding signal was 17800 fluorescence intensity (a.u.). With “GGAAATTACCGTCTCACTGACAAGCAGCTTTGCGCCCACCCGGAGTCACCTAGTGCAG”, the binding signal is 7820 fluorescence intensity (a.u.). Consider “TAACTGATTAATTTATTTTGGTGATTTATTGTAATTAAGACGGAGTCACCTAGTGCAG”, for which the binding signal is 37600 fluorescence intensity (a.u.). For the sequence “GACATCCTCTAATTTGGGAAAACATCGATTTTATTTTCTTCGGAGTCACCTAGTGCAG”, the binding signal was 3420 fluorescence intensity (a.u.). With “TCTGATTGCTGTTAGTTGTTGATGAGATGGAGATGGAGATCGGAGTCACCTAGTGCAG” the figure was 39900 fluorescence intensity (a.u.); with “TAATTTTAGATTGCTATTATATTATTTTAGACATGTAGATCGGAGTCACCTAGTGCAG”, 16400 fluorescence intensity (a.u.).

In the case of “CTTAATGTTAATCACACCGCTTAACCAAATGTCTTCTACACGGAGTCACCTAGTGCAG”, the binding signal was 11600 fluorescence intensity (a.u.).

For “CTGGATTTGCTGTTTTGTTAATCATAGATAAAGCAGTACACGGAGTCACCTAGTGCAG”, the binding signal was 4200 fluorescence intensity (a.u.). For “AGCTCTGATTGAATTAGCTAATTATGGTTGCACGTCTAAGCGGAGTCACCTAGTGCAG” the value was 59600 fluorescence intensity (a.u.).

For “TAATACAATTACATTATAATTATAGACTATATTTTACATCCGGAGTCACCTAGTGCAG”, the binding signal is 25000 fluorescence intensity (a.u.). For “TAGAGATTGAGATTTTCACCACAATGCCACTGAACTATCCCGGAGTCACCTAGTGCAG” the value was 12300 fluorescence intensity (a.u.); for “GATAAATTCAATTAAGGTTCATACCTTGAAAATTGTATTTCGGAGTCACCTAGTGCAG”, 19200 fluorescence intensity (a.u.); for “ACAAATTGTAATATCAGATAGAAACCCTTCGGTGTGTTCACGGAGTCACCTAGTGCAG”, 6080 fluorescence intensity (a.u.). Take “TTCCTGACCCTGCTTCACCTTAATTGTTATTTGAACAAAACGGAGTCACCTAGTGCAG”: the binding signal is 3680 fluorescence intensity (a.u.). As for “TTGTACATAATTGAAATTGACAATATACAATGTATAAGGGCGGAGTCACCTAGTGCAG”, the binding signal was 45100 fluorescence intensity (a.u.). With “GTAGATGAGCAATCCAATGTGTACCTGTGTTGTCTGTTGACGGAGTCACCTAGTGCAG” the figure was 3510 fluorescence intensity (a.u.); with “TTCTTCGGTGGTGGTGGTGGTGGGATGGAAGAGGAGGAAGCGGAGTCACCTAGTGCAG”, 8000 fluorescence intensity (a.u.); with “TCAAATACTAAGACTAATTGGTTAGTCTAACTACTTTCGTCGGAGTCACCTAGTGCAG”, 13000 fluorescence intensity (a.u.). For “TTGCAAATAATTTGGAAAGGTAATATGAGCTACAGCTGTGCGGAGTCACCTAGTGCAG” the value was 7080 fluorescence intensity (a.u.); for “TGAAACAAATTGACCACGTATGTATACTCATATGCAAATACGGAGTCACCTAGTGCAG”, 14100 fluorescence intensity (a.u.); for “CACCGTAATCATCATTCATCAGTACAATTAATCAACATTACGGAGTCACCTAGTGCAG”, 18300 fluorescence intensity (a.u.). With “GTGTGGATGGTTAGGGGAGGGTTATGTGGAGGGTCTTGTCCGGAGTCACCTAGTGCAG”, the binding signal was 3570 fluorescence intensity (a.u.).

Turning to “AAAATTTACTTTTGATAGACATATTTCAATCCAACCATCTCGGAGTCACCTAGTGCAG”, the binding signal was 8670 fluorescence intensity (a.u.). With “CACATAATTGAACTGCTAATTTTATTCTAGTCGGAAGCACCGGAGTCACCTAGTGCAG” the figure was 54600 fluorescence intensity (a.u.).

For “ATTAATTATATGATAGCAATAGATTTTCTATCGTTTTCTTCGGAGTCACCTAGTGCAG”, the binding signal is 33100 fluorescence intensity (a.u.). For the sequence “GAGTGATTTTGGTGTGAATAGTTGGGTACTGTGGTAAATGCGGAGTCACCTAGTGCAG”, the binding signal is 6930 fluorescence intensity (a.u.).

As to “CCAAGATAGTAAGTTAGTAACTAATTACTTGACCAAGTGGCGGAGTCACCTAGTGCAG”, the binding signal is 5920 fluorescence intensity (a.u.).

As to “TATTAGATTGATTAACTTTAGGAGGAAGGAGTACCGGTTACGGAGTCACCTAGTGCAG”, the binding signal was 46100 fluorescence intensity (a.u.). “TACCTAATTACCTTTGGGGTAAAGGGATCACTCGAATGTTCGGAGTCACCTAGTGCAG”: the binding signal was 20000 fluorescence intensity (a.u.). On to “ATAATTTACTGCTACTGACTATATGTACTACCTCTTGCCTCGGAGTCACCTAGTGCAG”, for which the binding signal is 11000 fluorescence intensity (a.u.).

In the case of “GTAAACTAAACTGATCTGCGAATTAAAGTTAAATTACAAGCGGAGTCACCTAGTGCAG”, the binding signal is 4960 fluorescence intensity (a.u.).

For “CGTAATAAATGAGTGGGACGTAGGGTAGTTTGCATGCCCTCGGAGTCACCTAGTGCAG”, the binding signal is 4190 fluorescence intensity (a.u.).

Consider “AACCAAGAATTGCAATTAGAAATTGCATAAAGATGTTCACCGGAGTCACCTAGTGCAG”, for which the binding signal is 3490 fluorescence intensity (a.u.). “ATTAAAATATGATTATTTGCTGCAAGACGCCGCATGTATTCGGAGTCACCTAGTGCAG”: the binding signal was 9520 fluorescence intensity (a.u.). As to “AGCCACGCAATCAATTAAATAATTAAGATAGGTACACGTGCGGAGTCACCTAGTGCAG”, the binding signal was 26400 fluorescence intensity (a.u.).

For the sequence “TTTAGTTGATTATGGCGCATTTTAATATTTCAAATCTAGACGGAGTCACCTAGTGCAG”, the binding signal is 8240 fluorescence intensity (a.u.). Take “CTCAGTTTGCTTAATTACATATGAAACTTAAAATGCTGAACGGAGTCACCTAGTGCAG”: the binding signal is 5750 fluorescence intensity (a.u.). As to “CTTGTCTAATTATTGTGCTTTTAATTTCCAGCAGGAACTACGGAGTCACCTAGTGCAG”, the binding signal is 25100 fluorescence intensity (a.u.).

For “GATGTAACTGTGATGTTTATATTTATGTATATATTTCATACGGAGTCACCTAGTGCAG”, the binding signal is 3600 fluorescence intensity (a.u.). With “ACCTTAATAGCCACCCACTACTCCCACTCCCACTTCGCTCCGGAGTCACCTAGTGCAG” the figure was 3510 fluorescence intensity (a.u.); with “TGTTTAACCATTCAGTTACACACTCTTACTATCATGCAAACGGAGTCACCTAGTGCAG”, 6250 fluorescence intensity (a.u.); with “AAATACCTTCAATTAATGCGTAATGTAACTATATAAGCACCGGAGTCACCTAGTGCAG”, 19900 fluorescence intensity (a.u.). For “GTCATAATCACTCGCATAAACGTAGGATGTTCTTAACTTCCGGAGTCACCTAGTGCAG” the value was 7610 fluorescence intensity (a.u.). For “GTTACAGCATAACTGCAATGTAATTATACTATACTCCCTCCGGAGTCACCTAGTGCAG” the value was 5420 fluorescence intensity (a.u.); for “AATTAACTTCTAAAGATTAATTTGAATAAGCATTTATTCACGGAGTCACCTAGTGCAG”, 5080 fluorescence intensity (a.u.). “ATACAAGAATTACATATAATAATTGGAAAGGTAGCGGGCGCGGAGTCACCTAGTGCAG”: the binding signal is 10900 fluorescence intensity (a.u.). With “TACTCATATGACATATCCAAATTGACACCGGGGTTAAGCCCGGAGTCACCTAGTGCAG” the figure was 6620 fluorescence intensity (a.u.); with “ACGTAAATTAATCTGTGGTTTCTTGGCGGCGGATCGATCGCGGAGTCACCTAGTGCAG”, 19700 fluorescence intensity (a.u.).

The values above are taken from paper PMC7819943, “Rice protein-binding microarrays: a tool to detect cis-acting elements near promoter regions in rice”.
